# Reference: PubChem BioAssay AID488895 (Broad Institute, 2010)
# Out of some 340,000 compounds screened, about 120 (0.035%) were called active. This list was built around the results that the source calls inconclusive (neither active nor inactive); the mix of calls is not that of the screen.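 How the source made its calls: active means mean replicate inhibition at least 50% and at least half of replicates individually reaching 50%; inconclusive means only one of the two criteria met; inactive means neither criterion met.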
# Test: E. coli Tat export inhibitors, primary screen, MC4100, TorA-mCherry reporter, fluorescence, single point (AID 488895);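 further: exported cargo escapes ClpAP degradation while cytoplasmic cargo is degraded and loses fluorescence; 0% = median of neutral control wells and 100% = median of NaSCN control wells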
# Settings: at 10 µM, active compounds read high
row,SMILES,inhibition
1,CC(=O)Nc1ccc(Nc2nc(C)c([N+](=O)[O-])c(N(C)c3ccccc3)n2)cc1,inconclusive: 28.3%
2,CCN(CC)C(=O)CSc1nc2ccccc2o1,inconclusive: 35.2%
3,CC1(c2ccccc2)NC(=O)N(CC(=O)Nc2ccc3c(c2)OCO3)C1=O (stereo unspecified),inactive: -0.161%
4,COc1ccc(C(NC(C)=O)c2cc(Cl)c3cccnc3c2O)cc1 (stereo unspecified),inactive: -4.61%
5,Cc1ccc(C(=O)NC(=S)NCc2ccccc2)cc1,inactive: 10.3%
6,CN(C)CCOc1ccc(-c2c(-c3ccccc3)sc3ccccc23)cc1,inactive: 13.4%
7,COc1ccc(C(=O)NCC(=O)N/N=C/C(C)=C/c2ccco2)cc1OC,inconclusive: 39.6%
8,Cc1ccccc1C(=O)N1CCN(c2ccc(NC(=S)NC(=O)c3cccs3)cc2)CC1,inconclusive: 29.9%
9,CN(C(=O)COC(=O)c1cccc(S(=O)(=O)N2CCOCC2)c1)C1CCS(=O)(=O)C1 (stereo unspecified),inconclusive: 28.5%
10,CCNc1nc(NCC)nc(OCCOC(C)=O)n1,inconclusive: 29.5%
11,COc1ccc(CCNC(=O)c2ccc(CN3CCC(Cc4ccccc4)CC3)cc2)cc1OC,inactive: -4.41%
12,Cc1ccc(C)c(S(=O)(=O)Nc2cc(SCC(=O)O)c(O)c3ccccc23)c1,inconclusive: 22.7%
13,CC1=CC(=O)[C@@H](O)[C@@H](c2ccccc2Br)N1C,inconclusive: 31.6%
14,O=CNCc1nc2ccccc2n1CCc1ccccc1,inconclusive: 25.4%
15,Nc1cc(S(=O)(=O)C(F)(F)F)ccc1C(=O)O,inconclusive: 17.7%
16,Cc1ccc(C(=O)NC(=S)NNC(=O)c2ccccc2O)cc1,inactive: -6.01%
17,Cc1cc(Cl)c(S(=O)(=O)NC(C(=O)O)C(C)C)cc1OCC(=O)NC1CCCCC1 (stereo unspecified),inconclusive: 37.7%
18,CCOC(=O)c1cnn(-c2cc(C)c3ccccc3n2)c1N,inconclusive: 24.5%
19,CCOC(=O)C1=C(C)Nc2ncnn2C1c1cc(Br)ccc1F (stereo unspecified),inconclusive: 45.2%
20,CCN(CC)CC(=O)c1c[nH]c2ccc(OC)cc12,inconclusive: 20.3%
21,CN(C)/C=C/C(=O)c1nnn(C2CCCCC2)c1NC1CCCCC1,inconclusive: 27.2%
22,Cc1cc(C(=O)N2CCN(c3ccccc3)CC2)no1,inconclusive: 31.2%
23,O=C(COc1ccc([N+](=O)[O-])cc1)Nc1cc(S(=O)(=O)N2CCCCC2)ccc1N1CCCCC1,active: 63.8%

row,SMILES,inhibition
1,COc1cccc(C(=O)NCCS(=O)(=O)NCc2ccccn2)c1,inconclusive: 21.4%
2,O=C1CCC(c2ccc(-n3ccnc3)cc2)=NN1,inactive: 23.6%
3,Cc1nc(SCc2nc3ccccc3[nH]2)c2oc3ccccc3c2n1,inconclusive: 43%
4,NNC(=S)Nc1cccc(Cl)c1,inactive: -0.947%
5,Cc1ccc(C(=O)/C=C/c2cc(Br)cc(Br)c2O)o1,inconclusive: 27%
6,CCCCCCCCCCCCCCCCn1cc[n+](C)c1,inconclusive: 47%
7,COc1ccccc1-c1ccc(=O)n(CC(=O)Nc2ccc(C(=O)N3CCCC3)cc2)n1,inconclusive: 34%
8,Nc1nc(F)nc2c1ncn2[C@@H]1O[C@H](CO)[C@@H](O)[C@@H]1O,inactive: -8.77%
9,O=C(Cc1ccccc1)Nc1nnc(-c2ccco2)s1,inactive: -0.0461%
10,CSc1cccc(NC(=O)CN(C)S(=O)(=O)c2cnc[nH]2)c1,inconclusive: 34.7%
11,CC(C)C(=O)NC(c1cccc([N+](=O)[O-])c1)c1ccc2cccnc2c1O (stereo unspecified),inactive: -0.945%
12,COc1cc(C(=O)N2C(=O)CCC2=O)cc(OC)c1OC,inactive: -7.45%
13,Cc1cc(C(F)F)n2nc(C(=O)Nc3c(F)cc(F)cc3Br)nc2n1,inconclusive: 22.8%
14,CN1CC(=O)N(CC(=O)Nc2ccc(SC(F)F)cc2)C1=O,inactive: 4.76%
15,Cc1cc(C(C#N)c2ccccc2F)n2ncnc2n1 (stereo unspecified),inconclusive: 28.8%
16,Cc1nc2ccc(C(=O)Nc3ccc4nc[nH]c4c3)cc2[nH]1,inconclusive: 37.9%
17,COc1ccc(C(=O)Nc2cnn(Cc3ccc(Cl)cc3)c2)cc1OC,inconclusive: 24.8%
18,COc1ccc(Nc2nc(NCCO)nc(OC)n2)cc1,inconclusive: 20.9%
19,COC(=O)c1ccc(-c2noc(CN3C[C@H]4CC[C@H]3C4)n2)cc1,inactive: -7.69%
20,COc1ccc(C(=O)NC(C(=O)NCc2ccccn2)C(C)C)cc1 (stereo unspecified),inconclusive: 25.2%
21,COCCCNC(=O)CCCC(=O)NCCCOC,inconclusive: 27.6%
22,O=C(CN1CCC(n2nnc3cc(F)ccc32)CC1)NCc1ccco1,inconclusive: 29.9%
23,Cc1ccc(NCCN(C)C)c2c(=O)c3cc(O)ccc3sc12,inactive: -8.84%

row,SMILES,inhibition
1,O=C(Nc1cccnc1Cl)c1noc2c1CCc1ccccc1-2,inconclusive: 29.8%
2,COC(=O)c1c(NC(=O)CCN2CCOCC2)sc2c1CCCC2,inconclusive: 22.3%
3,CC(=O)c1ccc(NC(=O)c2ccc([N+](=O)[O-])o2)cc1,inactive: 1.03%
4,O=C(CSc1nnc(-c2ccccc2)n1C1CCCCC1)N1CCCC1,inconclusive: 26.1%
5,Nc1nc(=O)n(C2CC(O)C(CO)O2)cc1F (stereo unspecified),inconclusive: 46.3%
6,Nc1ccccc1S(=O)(=O)NC1=NCCCCC1,inconclusive: 29.3%
7,OC1(c2ccccc2Cl)NN=C2CCCCCN21 (stereo unspecified),inconclusive: 40.4%
8,Cc1[nH]nc(-c2cccnc2)c1N=NN(C)C,active: 142%
9,Cc1cn(C2CCC(CO)O2)c(=O)[nH]c1=O (stereo unspecified),inactive: -1.49%
10,COc1cc(OC)c(OC)cc1/C=N/NC(=O)c1cc(-c2cccn2C)n[nH]1,inactive: 4.76%
11,Cc1nnc(Nc2ccc(Cl)c(C(F)(F)F)c2)[nH]c1=O,inconclusive: 29.8%
12,Cc1cc(C(=O)NNC(=O)c2cccc(C(F)(F)F)c2)no1,inactive: 6.53%
13,Oc1c(CN2CCN(c3ccccn3)CC2)cc(Cl)c2cccnc12,inactive: 2.56%
14,CCN1C(=O)/C(=C\N2CCN(C(=O)c3ccco3)CC2)SC1=S,inconclusive: 29.7%
15,O=C(Nc1nnc(S(=O)(=O)N2CCCCCC2)s1)c1ccccc1Br,inconclusive: 28.7%
16,CC(=O)c1cc(CN2CCCCC2)cc(OC(C)C)c1,inconclusive: 29.4%
17,CC(C)Cn1c(CN2C(=O)c3ccccc3C2=O)nc2ccccc2c1=O,inconclusive: 35.7%
18,CCc1ccc(NS(=O)(=O)c2ccc3[nH]cc(C(=O)N4CCCCC4)c(=O)c3c2)cc1,inconclusive: 26.3%
19,COc1cc([N+](=O)[O-])ccc1NC(=O)COC(=O)C=C(C)C,inconclusive: 25.9%
20,O=[N+]([O-])c1ccc(O)c(/C=N/Nc2nc3ccccc3[nH]2)c1,inconclusive: 38.1%
21,Cc1cccc(OCC(=O)N2CCOCC2)c1,inconclusive: 38.9%
22,CCOC(=O)C1(Cc2cccc(F)c2)CCN(C2CCOCC2)CC1,inconclusive: 26.1%
23,Cc1cccn2c(=O)c3cc(S(=O)(=O)c4ccccc4)c(=N)n(Cc4ccco4)c3nc12,inconclusive: 27.8%

row,SMILES,inhibition
1,CCC(C)c1ccc(C(C)NC(=S)NC2CCCCC2)cc1 (stereo unspecified),inactive: -1.05%
2,Cc1cccc2cc(CNCC3CCCO3)c(Cl)nc12 (stereo unspecified),inactive: 5.89%
3,Cc1ccccc1OCC(=O)Nc1nnc(-c2ccncc2)s1,inconclusive: 28.2%
4,CC(C)[C@H](CN1CCC[C@H]1CN1C(N)=NC[C@@H]1Cc1ccccc1)N1C[C@@H](Cc2ccccc2)N(CCc2ccc(Cl)c(Cl)c2)C1=N,inactive: 8.09%
5,O=C(O)Cn1cc(C(=S)N2CCOCC2)c2ccccc21,inconclusive: 31.7%
6,CCOC(=O)C1=C(C)c2ccccc2OC1(C(=O)OCC)C(C)C (stereo unspecified),inconclusive: 26.3%
7,COc1cccc(NC(=O)c2cccc(C(=O)Nc3cccc(OC)c3)n2)c1,inconclusive: 30.4%
8,CC(C)c1ccc(OCC(=O)NC2=NCCS2)cc1,inconclusive: 26.4%
9,C#CCOCCOCCOCCNc1nc(N2CCOCC2)nc(N2CCN(C(=O)[C@H](CO)n3cc([C@@H](N)C(C)C)nn3)CC2)n1,inconclusive: 19.6%
10,O=C(Cn1nc(C(=O)O)c2ccccc2c1=O)NCc1ccco1,inconclusive: 23%
11,O=C(Nc1nnc(-c2ccc3c(c2)CCCC3)o1)c1c(F)cccc1F,inactive: -2.31%
12,OCc1ccnc2c(O)cccc12,inconclusive: 13.3%
13,CC1CCc2nc(N)c(C#N)c(-c3ccncc3)c2C1 (stereo unspecified),inconclusive: 22.8%
14,CC(=O)Nc1ccc(NC(=O)CSc2ccccn2)cc1,inconclusive: 37.3%
15,CC(=O)Nc1ccc(NC2=C/C(=N/S(=O)(=O)c3cccs3)c3ccccc3C2=O)cc1,inconclusive: 21.2%
16,C#CCOCCOCCOCCNc1nc(N2CCN(C(=O)CCCCCCCCCCNC(=O)[C@H]([C@@H](C)CC)n3cc(CCCCCN)nn3)CC2)nc(N2CCN(C(=O)CCCCCCCCCCNC(=O)[C@H](CCCCN)n3cc(CCCC(=O)O)nn3)CC2)n1,inconclusive: 44.6%
17,COc1c(N2CCN(C(=S)Nc3ccccc3F)C(C)C2)c(F)cc2c(=O)c(C(=O)O)cn(C3CC3)c12 (stereo unspecified),active: 91.3%
18,CCOc1ccccc1-c1c2cc(O)c(=O)cc-2oc2cc(O)c(O)cc12,inactive: 11.7%
19,c1ccc2c3c([nH]c2c1)-c1[nH]ncc1CC3,inactive: -8.6%
20,CCn1c(CNc2ccc(Cl)cc2)nnc1SCc1ccc(Cl)cc1,inactive: 13.4%
21,Cc1ccc(O)c(-c2cc(-c3cccc(F)c3)n[nH]2)c1,inactive: 29.2%
22,COc1ccc(N(C2=NCCCS2)S(=O)(=O)c2ccc(C(C)(C)C)cc2)cc1,inconclusive: 29.4%
